# Results published in patent publication US20250179172A1 (HAINAN SIMCERE ZAIMING PHARMACEUTICAL, published 2025).
# T1: human CD5 (Arg25-Pro372)-His protein (Acro, Cat. No. CD5-H52H5) (human, UniProt P06127 25-372)
# T1 construct: range 25-372; also called human CD5-His; hCD5-His; not shown: His tag
# T1 sequence (looked up): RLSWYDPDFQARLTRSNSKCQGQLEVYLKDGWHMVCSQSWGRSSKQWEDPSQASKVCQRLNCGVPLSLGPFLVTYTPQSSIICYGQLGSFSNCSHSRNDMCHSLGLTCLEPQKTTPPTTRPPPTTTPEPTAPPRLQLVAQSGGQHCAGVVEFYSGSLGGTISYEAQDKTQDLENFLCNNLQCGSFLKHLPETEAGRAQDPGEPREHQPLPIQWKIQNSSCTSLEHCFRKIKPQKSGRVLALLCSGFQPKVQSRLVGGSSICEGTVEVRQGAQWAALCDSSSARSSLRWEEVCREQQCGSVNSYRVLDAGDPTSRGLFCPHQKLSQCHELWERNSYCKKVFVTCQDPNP
# T2: human CD5, full length, on cells (Jurkat, endogenous; CHO-K1-human CD5, transfected) (human, UniProt P06127 25-495)
# T2 construct: Jurkat cells carry the endogenous protein; also called hCD5; CHO-K1-hCD5-2B2
# T2 sequence: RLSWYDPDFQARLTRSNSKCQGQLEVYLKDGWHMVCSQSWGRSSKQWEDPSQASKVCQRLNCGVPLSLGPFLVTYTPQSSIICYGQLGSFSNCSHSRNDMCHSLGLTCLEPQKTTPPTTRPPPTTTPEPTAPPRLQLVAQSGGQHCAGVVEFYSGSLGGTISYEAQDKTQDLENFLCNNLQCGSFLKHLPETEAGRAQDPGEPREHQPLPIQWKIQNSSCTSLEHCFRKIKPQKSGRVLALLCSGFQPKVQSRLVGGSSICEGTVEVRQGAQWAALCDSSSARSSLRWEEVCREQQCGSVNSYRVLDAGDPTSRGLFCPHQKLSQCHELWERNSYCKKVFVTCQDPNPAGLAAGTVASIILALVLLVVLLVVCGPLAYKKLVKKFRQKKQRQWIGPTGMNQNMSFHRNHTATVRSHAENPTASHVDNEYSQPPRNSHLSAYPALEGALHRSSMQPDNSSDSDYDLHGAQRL
# B1: H65 scFv-hFc (Fc fusion)
# chain: NIQLVQSGPELKKPGETVKISCKASGYTFTNYGMNWVKQAPGKGLRWMGWINTHTGEPTYADDFKGRFAFSLETSASTAYLQINNLKNEDTATYFCTRRGYDWYFDVWGAGTTVTVSSGGGGSGGGGSGGGGSDIKMTQSPSSMYASLGERVTITCKASQDINSYLSWFHHKPGKSPKTLIYRANRLVDGVPSRFSGSGSGQDYSLTISSLDYEDMGIYYCQQYDESPWTFGGGTKLEMK[human IgG1 Fc with changes not printed]
# notes: also called H65 antibody
# B2: S005-NB145-22 VHH-hFc (Fc fusion)
# chain: QVQLVESGGGLVQAGGSLRLSCAVSGRTLSTVVVGWFRQTPGREREFVAVSRSGGATGYADSVKDRFTISRDNAKNTVALQMNSLKPEDTAVYYCAGRGSGLYGSSWYNQIQEYDGWGQGTQVTVSS[human IgG1 Fc with changes not printed]
# notes: VHH fused to human IgG1 Fc; no linker stated
# B3: S005-NB144-73 VHH-hFc (Fc fusion)
# chain: EVQVVESGGGLVQAGGSLRLSCAASGDTICISAMYWYRQAPGKAREMVAAITSGGSTYYEDSVMGRFTIFRENAKNTVYLQMNSLKPEDTAVYYCNADIAGHNCSGYLKEYWGQGTQVTVSA[human IgG1 Fc with changes not printed]
# notes: VHH fused to human IgG1 Fc; no linker stated; also called S002-NB144-73
# B4: S005-NB145-3 VHH-hFc (Fc fusion)
# chain: QVQLVESGGGLVQPGGSLRLSCAASGFSLDYYAIGWFRQAPGKEREGVSYISPSDGRTYYADSVKGRFTISRDNAKNTVYLQMNSLKPEDTAVYYCATDWGSTSFDYGLKLSPTQYGYWGQGTQVTVSS[human IgG1 Fc with changes not printed]
# notes: as for B2
# B5: S005-NB145-92 VHH-hFc (Fc fusion)
# chain: EVQLVESGGGLVQPGGSLRLSCAASGFSLDYYAIGWFRQAPGKEREGVSYISASDGSTYYADSVKGRFTISRDNAKNTVYLQMNSLKPEDTAVYYCATDWGSGSFNYGLRLSPTQYDYWGQGTQVTVSS[human IgG1 Fc with changes not printed]
# notes: as for B2
# B6: S005-NB144-6 VHH-hFc (Fc fusion)
# chain: QVQLVESGGGLVQAGGSLRLSCAASGSIFSISVMGWYRQAPGKERETVAVISSGGSTYYADSVKGRFTISRDNAKNTLYLQMNSLKPEDTAVYYCNADFETASGSPLYESWGQGTQVTVSS[human IgG1 Fc with changes not printed]
# notes: as for B2
# B7: S005-NB144-7 VHH-hFc (Fc fusion)
# chain: EVQVVESGGGLVQAGGSLRLSCAASGSIFSINLLGWYRQAPGKERESVAILSSGGSTYYADSVKGRFTISRDNVKNMLYLQMNSLKPEDTAVYYCNAVGGIATLRDYWGQGTQVTVSS[human IgG1 Fc with changes not printed]
# notes: as for B2
# B8: S005-NB144-43 VHH-hFc (Fc fusion)
# chain: QVQLVESGGGLVQPGGSLRLSCAASGFTWDYYAIGWFRQAPGKEREGVSCIDSSGGSINYLDSVKGRFTVSRDNAKNTVYLQMDSLKPEDTAIYYCAASSYWDCAVPDTGSPKTGHLESYFGSWGQGTQVIVSS[human IgG1 Fc with changes not printed]
# notes: VHH fused to human IgG1 Fc; no linker stated; also called S002-NB144-43
# B9: S005-NB144-4 VHH-hFc (Fc fusion)
# chain: EVQVVESGGGLVQAGGSLRLSCAASGSIFSINAMGWYRQAPGKEREVVAAISNGGNTYYEDSVMGRFTISRDNAKGTLYLQMNGLKPEDTAVYYCNADTVVGGGLLTEVWGQGTLVTVSS[human IgG1 Fc with changes not printed]
# notes: as for B2
# B10: S005-NB144-3 VHH-hFc (Fc fusion)
# chain: QLQLVESGGGLVQPGGSLRLSCAASGFTFSSYAMSWYRQAPGKERELVAAITSAGGSTTYADSVKDRFTISRDNAKNTVSLQMNSLKPEDTAVYYCNAYCTGYVCHEGGYDYWGQGTQVTVSS[human IgG1 Fc with changes not printed]
# notes: VHH variable region recombined into vector BI3.4-huIgG1 with signal peptide and human IgG1 Fc; no linker between VHH and Fc is stated
# B11: S005-NB145-74 VHH-hFc (Fc fusion)
# chain: EVQLVESGGGLVQAGGSLRLSCAASESTFSITAMGWYRQAPGKQRELVAAITSPGGSTNYADSVKGRFTISRDNAKNTMLLQMNSLKPEDTAVYYCNADINHGSGYYTVSWGQGTQVTVSS[human IgG1 Fc with changes not printed]
# notes: as for B2
# B12: S005-NB144-31 VHH-hFc (Fc fusion)
# chain: EVQVVESGGGLVQPGGSLRLSCAASGFTLDYYAIGWFRQAPGKEREGLSCISTSGGSTNYADSVKGRFTISRDNAKNTVYLQMNSLKPEDTAVYYCAASSFWDCAVVGTGSPKTGHLESVFGSWGQGTQVTVSS[human IgG1 Fc with changes not printed]
# notes: VHH fused to human IgG1 Fc; no linker stated; also called S002-NB144-31
# Target: T1, human CD5 (Arg25-Pro372)-His protein …
# Test: ELISA on hCD5-His, antibody 0.001 nM
# Procedure: (§1) The binding activity of the H65 antibody prepared above with human CD5 protein was subjected to ELISA assay. A purchased commercial antigen (human CD5-His) was diluted with PBS to obtain a final concentration of 2 μg/mL, and then added to a 96-well ELISA plate with 100 µL/well. The plate was sealed with a plastic film and incubated at 4° C. over the night, washed twice with PBS in the next day, added with a blocking solution [PBS+2% (w/w) BSA] and blocked at room temperature for 2 h. The blocking solution was drained out, and 100 nM of the H65 antibody or negative control antibody hIgG1 after gradient dilution was added, namely, the obtained product was the antibody Anti-HEL-hIgG1 against hen egg lysozyme (purchased from Biointron, Cat. No. B117901) with 50 μl per well. After incubation for 2 h at 37° C., the plate was washed for 3 times with PBS. A secondary antibody labeled with HRP (horseradish peroxidase) (A0170, purchased from Sigma) was added. After incubation for 2 h at 37° C., the plate was washed for 5 times with PBS. A TMB substrate was added with 50 μL/well and incubated at room temperature for 30 min, then a stop solution (1.0 N HCl) was added with 50 μL/well.
# (§2) To assay the binding activity of VHH-hFc to human CD5 protein, ELISA assay was performed according to the method described in Example 2.2. […] IgG control is hIgG1, and data in the table are values of OD_{450 nm}.
row,Binder,OD450 [OD450]
1,B1,0.09
2,B2,0.12
3,B3,0.08
4,B4,0.13
5,B5,0.18
6,B6,0.14
7,B7,0.71
8,B8,0.12
9,B9,0.17
10,B10,0.12
11,B11,0.1
12,B12,0.21

# Target: T2, human CD5, full length, on cells …
# Test: FACS on CHO-K1-human CD5 cells
# From the text: (§3) The desired cells were expanded to a logarithmic growth phase in a T-75 cell culture flask. Adherent cells CHO-K1-human CD5 were removed from the culture medium by pipetting, and the cells were washed twice with a PBS buffer, digested with trypsin, and washed twice with a PBS buffer again after the digestion was stopped. For suspension cells Jurkat, the medium supernatant was discarded by direct centrifugation, and the cell pellet was washed twice with PBS. After the cells obtained in the last step were subjected to cell counting, the cell pellet was resuspended to 2×10⁶ cells/mL with a blocking solution [PBS+2% (w/w) BSA] and added to a 96-well FACS reaction plate with 50 μL/well. The VHH-hFc or control antibody was added with 50 μL/well, and the plate was incubated on ice for 2 h. […] After the plate was centrifuged and washed for 5 times with a PBS buffer, the results were assayed and analyzed by FACS (FACS Canto™, purchased from BD Biosciences). Data analysis was performed by software (BD FACSDiva) to obtain the mean fluorescence intensity (MFI) of the cells. Analysis was then performed by software (GraphPad Prism8), data were fitted, and EC₅₀ values were calculated. […] The same method was used to assay the binding reactions of 1 nM and 10 nM VHH-hFc antibodies with Jurkat cells and endogenous CD5-negative Raji cells, and to assay the binding reactions of 1 nM and 10 nM VHH-hFc antibodies with CHO-K1 cells and CHO-K1-human CD5.
Binder,EC50 [nM],Max MFI [MFI]
B1,0.8,4700
B2,1.53,3330
B3,0.41,5390
B4,4.08,1260
B5,8.22,1050
B6,0.21,3660
B7,0.75,4090
B8,3.47,5920
B9,1.19,9750
B10,2.71,3240
B11,3.64,2140
B12,3.47,5680

# Target: T2, human CD5, full length, on cells …
# Test: FACS on Jurkat cells
# From the text: as §3
Binder,EC50 [nM],Max MFI [MFI]
B1,0.32,2750
B2,0.71,1930
B3,0.14,2730
B4,4.7,2100
B5,3.46,1280
B6,–,1980
B7,1.11,1850
B8,427,2620
B9,0.08,1870
B10,4.09,2740
B11,3.85,1290
B12,51,2590

# Target: T1, human CD5 (Arg25-Pro372)-His protein …
# Test: ELISA on hCD5-His, antibody 0.01 nM
# Procedure: as §1, §2
row,Binder,OD450 [OD450]
1,B1,0.17
2,B2,0.2
3,B3,0.14
4,B4,0.2
5,B5,0.3
6,B6,0.26
7,B7,0.88
8,B8,0.24
9,B9,0.28
10,B10,0.21
11,B11,0.22
12,B12,0.39
